Assay results: PubChem BioAssay AID1745845 (National Center for Advancing Translational Sciences (NCATS), 2022)
Where “and” joins values, the source holds several entries; their conditions need not be identical. Equal values may be shown once. The whole screen tested about 360,000 compounds, of which about 2,600 (0.72%) were called active. Inconclusive results, whose numbers are uncertain, are shown with a selection of clear calls. Calls follow the shape of the dose curve; as a rule, active = well fitted inhibition curve with a large enough effect; inconclusive = small, poorly fitted or top-dose-only effect; inactive = no such curve, though single readings can be large or run the other way. Potencies beside an inconclusive call are fits to weak or partial responses and may not hold up.
% is scaled to controls: 0 for no effect and ±100 for the full control effect; potency is read from the fitted curve at half-maximal effect; tags tell the direction and shape of the fitted curve.

Test: Primary qHTS for Inhibitors of ATXN expression; also: nearly all actives have a fitted effect of over 55% in size
Conditions: HEK-293 ATXN2-luciferase reporter, luminescence, 24 h; activity change, negative = inhibition: at 57 µM (top of the series)
In short: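 qHTS (up to 57 uM final) was run with 24 h compound exposure of reporter cells at 37 °C. Each well was multiplexed: SteadyGlo luminescence measured ATXN2-luciferase expression after a fluorogenic Gly-Phe-AFC viability readout (25 uM final).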
For `COc1cccc(C(=O)N2CCN(CCCc3ccccc3)CC2)c1OC`, the Potency was inconclusive: 39.8 µM [inhibitor, partial curve, poor fit].
With `NC(=O)c1ccc(-c2ncc(-c3ccccc3)o2)cc1` the Potency was inconclusive: 14.1 µM [inhibitor, single point].
With `COc1ccc(N2C(=O)CSC2c2cccs2)cc1` (stereo not drawn) the “activity change, negative = inhibition” value was inactive: -6.25%.
In the case of `C=CCNC(=S)N/N=C/c1ccc(C(F)(F)F)cc1`, the Potency is reported as inconclusive: 2.38 µM [inhibitor, full curve].
For `CC1(C)CC(=O)C=C(C#CC2(O)CCCCC2)C1`, the Potency was inconclusive: 31.6 µM [inhibitor, single point].
With `C=CCSc1nc2ccccc2n1C(=O)/C=C/c1cc(OC)c(OC)c(OC)c1` the Potency was active: 10 µM.
In the case of `CN(C)CCNC(=O)c1sc2nc(-c3ccccc3)cc(C(F)(F)F)c2c1N`, the Potency is reported as inconclusive: 8.91 µM [inhibitor, partial curve, poor fit].
With `O=C(c1ccc(NS(=O)(=O)c2ccccc2)cc1)N1CCCCCC1` the “activity change, negative = inhibition” value was inactive: 0.0943%.
For `Cc1cc(Nc2ccccc2Cl)nc(-c2ccccc2O)n1`, the “activity change, negative = inhibition” value was inactive: -3.02%.
With `Cc1c(C#N)c(NC(=O)CCl)n(Cc2cccs2)c1C` the Potency was inconclusive: 33.6 µM [inhibitor, single point].
With `Cc1ccc(-c2csc(N3CCC(C(N)=O)CC3)n2)cc1` the “activity change, negative = inhibition” value was inactive: 35.1%.
In the case of `Cc1ccc(S(=O)(=O)N(CC(=O)Nc2cccnc2)c2cccc([N+](=O)[O-])c2)cc1`, the “activity change, negative = inhibition” value is reported as inactive: -21.8%.
For `CCCCc1ccc(NC(=S)Nc2ccc(Cl)c(S(=O)(=O)N(C)C)c2)cc1`, the Potency was inconclusive: 25.1 µM [inhibitor, partial curve].
For `Oc1ccc(C=NNc2ccccn2)c(O)c1`, the Potency was inconclusive: 8.91 µM [inhibitor, full curve].
In the case of `Cc1cccc(C(O)c2ncc(-c3ccc(C(F)(F)F)cc3)[nH]2)c1C` (stereo not drawn), the “activity change, negative = inhibition” value is reported as inactive: -6.31%.
In the case of `CCCCn1c(C2CCCCC2)nc2cc3[nH]c(=O)c(C(C)C)nc3cc21`, the Potency is reported as inconclusive: 39.8 µM [inhibitor, single point].
In the case of `Cc1cccc(C(=O)Nc2cccc(NC(=O)c3ccccc3)c2)c1`, the “activity change, negative = inhibition” value is reported as inactive: -17.4%.
With `COc1ccc(OC)c(CC(=O)NC(c2ccccc2)c2ccccc2)c1` the “activity change, negative = inhibition” value was inactive: -3.79%.
With `Cc1nc(Nc2cnc(/C=C/c3cc(C(=O)Nc4cccc(C(F)(F)F)c4)ccc3C)cn2)cc(N2CCNCC2)n1` the Potency was active: 15.8 µM.
With `CC1Cc2ccccc2N1C(=S)NC(=O)c1ccc(Cl)cc1Cl` (stereo not drawn) the Potency was inconclusive: 35.5 µM [inhibitor, partial curve, poor fit].
With `O=C1CC(c2ccccc2)Sc2ccccc2N1Cc1ccc(F)cc1` (stereo not drawn) the Potency was inconclusive: 39.8 µM [inhibitor, single point].
In the case of `O[C@H]1C[C@H](c2ccccc2)N(CC2CCCCC2)C[C@@H]1n1cc(C2CC2)nn1`, the Potency is reported as inconclusive: 39.8 µM [inhibitor, single point].
For `CSc1ccc(S(=O)(=O)N2CCC(C(=O)NC3CC3)CC2)cc1`, the “activity change, negative = inhibition” value was inactive: 0.0767%.
With `Cc1ccc(S(=O)(=O)N(Cc2ccccc2)c2ccccc2C(=O)NCc2ccco2)cc1` the Potency was inconclusive: 31.6 µM [inhibitor, single point].
With `COc1ccc(C(=O)NNC2CC(=O)N(Cc3ccc(Cl)cc3)C2=O)cc1OC` (stereo not drawn) the “activity change, negative = inhibition” value was inactive: 10.7%.
In the case of `N#C/C(=C(/O)c1ccc([N+](=O)[O-])s1)c1nc2ccccc2[nH]1`, the Potency is reported as inconclusive: 20 µM [inhibitor, partial curve, poor fit].
With `Cc1c(NC(=O)c2cnn3c(C(F)(F)F)cc(-c4ccco4)nc23)c(=O)n(-c2ccccc2)n1C` the “activity change, negative = inhibition” value was inactive: -1.16%.
For `COc1cc2nc(N3CCN(C(=O)c4ccco4)CC3)nc(N)c2cc1OC`, the Potency was inconclusive: 22.4 µM [inhibitor, single point] and inconclusive: 43.2 µM [inhibitor, single point] and inconclusive: 39.8 µM [inhibitor, single point].
With `O=S(=O)(c1ccc(N2CC=C(c3ccccc3)CC2)nc1)N1CCCC1` the Potency was inconclusive: 17.8 µM [inhibitor, partial curve].
With `CCn1c2ccccc2c2cc(NC(=O)CNC)ccc21` the Potency was inconclusive: 17.8 µM [inhibitor, single point].
With `CC(C)(C)S(=O)N1Cc2cc(C(=O)Nc3ccc(-c4ccccc4)cc3)nc(-c3cccc(-c4cc5ccccc5o4)c3)c2[C@@H]1CCO` (stereo partly drawn) the Potency was inconclusive: 31.6 µM [inhibitor, single point].
In the case of `C[C@H]1CN([C@@H](C)CO)C(=O)CCCn2nncc2CO[C@@H]1CN(C)C(=O)Nc1ccc(N2CCCCC2)cc1`, the “activity change, negative = inhibition” value is reported as inactive: -4.45%.
For `COc1cc(CNC2CCCCCCC2)cc(Br)c1OCC#N`, the “activity change, negative = inhibition” value was inactive: -22.6%.
In the case of `S=C(NCCCc1ccccc1)Nc1ccccc1`, the “activity change, negative = inhibition” value is reported as inactive: 2.44%.
For `CCN(C(=O)c1cnc(OC)cc1C(F)(F)F)c1ccc(Cl)cc1Cl`, the “activity change, negative = inhibition” value was inactive: -13.8%.
For `CCCCN1CC(c2nc3ccccc3n2CCCCOc2cccc(C)c2C)CC1=O` (stereo not drawn), the Potency was inconclusive: 31.6 µM [inhibitor, single point].
In the case of `O=C(CCCCCNc1nc(=S)[nH]c2ccccc12)NCCc1ccc(Cl)cc1`, the Potency is reported as inconclusive: 29.9 µM [inhibitor, partial curve, poor fit].
With `COc1ccc(-c2csc(NC(=O)c3ccc(OCC(=O)N4CCOCC4)c(OC)c3)n2)cc1OC` the Potency was active: 15.8 µM.
In the case of `CCC(C)Cn1c(C)nc2ccccc21` (stereo not drawn), the “activity change, negative = inhibition” value is reported as inactive: -9.5%.
For `COc1ccc(NC(=O)C2(C)CCN2Cc2cccc(OC)c2F)cc1OC` (stereo not drawn), the “activity change, negative = inhibition” value was inactive: -24%.
In the case of `O=C(O)c1ccccc1NC(=O)C(c1ccccc1)c1ccccc1`, the “activity change, negative = inhibition” value is reported as inactive: 19.1%.
In the case of `CCN(CC)S(=O)(=O)c1ccc(N2CCOCC2)c(NC(=S)NC(=O)c2ccco2)c1`, the activity change, negative = inhibition is reported as inconclusive: -40.2% [inhibitor].
With `CCCSC(=S)c1c(C)[nH]n(-c2ccccc2)c1=O` the Potency was active: 25.1 µM.
With `O=C(/C(=C/c1ccc(Cl)cc1)c1nc2ccccc2[nH]1)c1cccs1` the Potency was inconclusive: 4.47 µM [inhibitor, single point].
With `Nc1nc2ccc(S(=O)(=O)N3CCCCC3)cc2s1` the Potency was inconclusive: 35.5 µM [inhibitor, partial curve, poor fit].
With `CCCC(=O)Nc1ccc(C(=O)N/N=C/c2ccc([N+](=O)[O-])o2)cc1` the Potency was inconclusive: 17.8 µM [inhibitor, single point].
With `CCN(CC)CCOc1ccc(Cc2ccccc2)cc1` the Potency was inconclusive: 39.8 µM [inhibitor, single point].
In the case of `COc1ccc(NCC(=O)Nc2ccc(Cl)cc2C)c(OC)c1`, the Potency is reported as inconclusive: 11.2 µM [inhibitor, partial curve, poor fit].
With `CC(=O)NC(c1cccs1)c1cc(Br)c2cccnc2c1O` (stereo not drawn) the Potency was active: 5.01 µM.
In the case of `Cc1cc(C)cc(NC(=O)CSc2nc3[nH]ncc3c(=O)[nH]2)c1`, the Potency is reported as inconclusive: 20 µM [inhibitor, partial curve, poor fit].
In the case of `NC(Cc1ccc(Cl)cc1)c1csc(Nc2ccc(C(=O)c3ccccc3)cc2)n1` (stereo not drawn), the Potency is reported as inconclusive: 35.5 µM [inhibitor, single point].
In the case of `CCOc1ccc(N(CC)C(=O)c2cc3c(s2)-c2ccccc2OC3)cc1`, the Potency is reported as inconclusive: 28.2 µM [inhibitor, single point].
For `C=CC[C@@H](CC(=O)N[C@@H](CO)Cc1ccccc1)C(=O)N[C@H](COC(=O)[C@@H](CC=C)Cc1ccc(F)cc1)C(C)(C)C`, the Potency was inconclusive: 39.8 µM [inhibitor, single point].
For `N=c1c2c(n(Cc3ccc(Cl)c(Cl)c3)c3c1CCC3)CCCC2`, the Potency was inconclusive: 11.2 µM [inhibitor, partial curve].
In the case of `O=C1C2C3C=CC(C2C(=O)N1C1CCCCC1)C1C(=O)N(C2CCCCC2)C(=O)C31` (stereo not drawn), the Potency is reported as inconclusive: 31.6 µM [inhibitor, partial curve, poor fit].
With `Cc1cc(N2CCCCC2)nc2ccc(NC(=O)CCC(=O)N3CCN(c4ccccc4)CC3)cc12` the Potency was inconclusive: 39.8 µM [inhibitor, single point].
For `O=C(NNC(=O)c1ccccc1[N+](=O)[O-])Nc1ccc(Cl)cc1`, the “activity change, negative = inhibition” value was inactive: 3.35%.
In the case of `COc1ccccc1NC(=S)NC(=O)c1ccc(Cn2cc(Br)cn2)cc1`, the Potency is reported as inconclusive: 18.9 µM [inhibitor, partial curve, poor fit].
For `COc1ccc(NC(=O)c2cc(C)cc(C)c2)cc1[N+](=O)[O-]`, the Potency was inconclusive: 7.08 µM [inhibitor, partial curve, poor fit].
With `CCOC(=O)C1=C(O)/C(=C/c2cn(CC(=O)NCC3CCCO3)c3ccccc23)SC1=Nc1ccc(C)cc1` (stereo not drawn) the Potency was active: 10 µM.
In the case of `CCC(C(=O)Nc1cc(F)ccc1F)n1nc(C)c2c(C)n(-c3ccc(C)cc3)nc2c1=O` (stereo not drawn), the Potency is reported as inconclusive: 25.1 µM [inhibitor, single point].
In the case of `Cc1ccc(-n2c(Cc3ccccc3)nnc2SCc2nc(-c3cccs3)no2)cc1C`, the Potency is reported as inconclusive: 31.6 µM [inhibitor, single point].
With `COc1cccc(N2CCN(Cc3ncc(-c4ccccc4)o3)CC2)c1` the “activity change, negative = inhibition” value was inactive: -18.2%.
For `Cc1cccc(NS(=O)(=O)c2cccc(C(=O)N3CCN(C/C=C/c4ccccc4)CC3)c2)c1`, the Potency was inconclusive: 39.8 µM [inhibitor, single point].
For `CCOc1ccc(C(=O)NC(Cc2ccccc2)C(=O)OC)cc1` (stereo not drawn), the “activity change, negative = inhibition” value was inactive: 47.6%.
For `Cc1[nH]c2ccccc2c1C(=O)/C=C/c1ccccc1`, the “activity change, negative = inhibition” value was inactive: 68.8%.
With `O=C(CSc1n[nH]c(-c2ccccc2)n1)Nc1ccc(Br)cn1` the Potency was inconclusive: 20 µM [inhibitor, partial curve].
For `COc1ccc(OC)c(NC(=O)Cn2c(=O)cc(-c3ccccc3)c3c(C)nn(C)c32)c1`, the Potency was inconclusive: 39.8 µM [inhibitor, single point].
